Laboratory results reported in the supplement of paper PMC10338343.
± gives the standard deviation. Over roughly 5,500 sequences, “pre-steady-state target cleavage rate” has its median near 0.1; the highest 2% begin near 0.64. The list shows a part of the results, in another mix than the full data.

System: MIWI (PIWIL1) piRISC loaded with piRNA #2 (30 nt)
Assay: pre-steady-state target cleavage rate (min^-1); MIWI and MILI are mouse PIWI proteins and EfPiwi is from a freshwater sponge; tags in brackets are library labels; higher = faster piRNA-guided slicing of the target
Details: guide: piRNA #2 5'p-UUAGGUAACCCAGUAGAUCCAGAGGAAUUC; auxiliary factor: 500 nM mouse GTSF1
In short: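 Cleave-'n-Seq: a transcribed, DNA-blocked target RNA library (0.1 nM) was mixed with 1 nM active affinity-purified piRISC carrying one synthetic guide, with or without 500 nM GTSF1 partner protein, in HEPES–potassium acetate buffer at 33 °C for 0–8 or 0–960 min. Uncleaved targets were sequenced and normalised to depth and to weakly complementary targets. Three trials were pooled, and k3 was capped at 0.0001 min^-1. The pre-steady-state cleavage rate came from a burst-and-steady-state fit.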

| Sequence | pre-steady-state target cleavage rate |
| --- | --- |
| GAAUUCCUCUGGAUCUACUGGGUUCCCUAA | 0.195 ± 0.039 |
| CAUUUCCUCUCGAUCUACUGGGUUACCUAA | 0.808 ± 0.052 |
| CUUAAGGAGACCUACUACUGGCGUUACCUAA | 0.00806 ± 0.0036 |
| CAAUUCCUCUGGAUCUACUGGGUGACCUAA | 0.319 ± 0.044 |
| CUUUUCCUCUCGAUCAACUGGGUUACCUAA | 0.553 ± 0.039 |
| CUUAAGCUCUGGAUGCUACUGGGUUACCUAA | 0.09 ± 0.015 |
| CUUAAGCACUGGAUCUACUGGGUUACCUAA | 0.293 ± 0.033 |
| CUUUUGCUCUGGAUCUACUGGGUAACCUAA | 0.093 ± 0.016 |
| GAAUUCCUCUGGAUCUACUGGGUUUCCUAA | 0.27 ± 0.047 |
| CUUAAGCUCUGGUUCUACUCGGUUACCUAA | 0.0643 ± 0.0085 |
| CUUAACCUCUCGGAUCUACUGGGUUACCUAA | 0.225 ± 0.025 |
| CUAUUCCUCUGGUUCAACUGGGUUACCUAA | 0.485 ± 0.035 |
| CUAUUCCUCUGGAUCUACUGGCUUACCUUA | 0.0561 ± 0.016 |
| CUUAAGGUCUGGAUCAUCUGGGUUACCUAA | 0.0609 ± 0.018 |
| CUAUUCCACUGGAUCUACUGGGUUUCCUAA | 0.448 ± 0.066 |
| CUUAAGGAGAGGAUCUACUGAGUUACCUAA | 0.0392 ± 0.0091 |
| CAAAUCCUCUGGAUCUACUGGGUUACCUUA | 0.394 ± 0.057 |
| CUAUUCCUCUGGUCUACUGGGUUACCUAA | 0.341 ± 0.084 |
| CUUAACCCUGGAUCUACUGGGUUACCUAA | 0.326 ± 0.033 |
| CUUAUCCUCUGGAUCUACUGGGUUACCUA | 0.455 ± 0.069 |
| CUUAAGGACUGGAUCUACUAGGUUACCUAA | 0.0835 ± 0.039 |
| CUUAAGCUCAGGAUCUACUGGGUAACCUAA | 0.0991 ± 0.022 |
| CUUUUCCUCUGGAUCUACUGGGUUACCUAAA | 0.34 ± 0.043 |

| Sequence | pre-steady-state target cleavage rate |
| --- | --- |
| CUUAAGGAGACCAUCUACUGGCGUUACCUAA | 0.0115 ± 0.0026 |
| CUUUUGCUCUGGUUCUACUGGGUUACCUAA | 0.391 ± 0.031 |
| CUUUUCCUCUGGAUCUACUGGGUAAGCUAA | 0.0752 ± 0.018 |
| CAAUUCCUCUGGAUCAACUCGGUUACCUAA | 0.0921 ± 0.02 |
| CUUAAGCUCUGGAUCUACUGGCUUACCUAA | 0.0576 ± 0.012 |
| GAAUUCCUCUGGAUCUACUCCCAAUGGAUA [g12:g30:cont:t1A] | < 0.0001 |
| CUUUUCCUCUAGAUCUACUGGGUUACCUAA | 0.597 ± 0.035 |
| CUUUUCCUCUGGAUCACUGGGUUACCUAA | 0.0366 ± 0.011 |
| CUUAAGGAGUGGAUCUACUGGGUUACCUCAA | 0.0757 ± 0.025 |
| CUUAACCUCUGGAUCUACUGGGUUUGGAUA [g7:g25:cont:t1A] | 0.00825 ± 0.0039 |
| CUUUUCCUCUGCAUCUACUGGGUUACCUUA | 0.316 ± 0.05 |
| CUUAAGGUCUGCAUCUACUGGGUUAGCUAA | 0.117 ± 0.026 |
| CAAUUCCUCUGGAUCUACUGGCGUUACCUAA | 0.00552 ± 0.0033 |
| CUUAAGGACUGGAUCUACUGCGUUACCUUA | 0.0962 ± 0.053 |
| CAAUUGCUCUGGAUCUACUGGGUAACCUAA | 0.156 ± 0.035 |
| CUUUUCCUCUGGGAUCUACUGGGUUACCUAA | 0.455 ± 0.037 |
| CUAUUCCUGUGGAUCUACUGGGUAACCUAA | 0.19 ± 0.041 |
| CUUAACCUCUGGAUCUACUGGGUUACCUAAA | 0.174 ± 0.024 |
| CUUUGCCUCUGGAUCUACUGGGUUACCUAA | 0.286 ± 0.031 |
| CAAUAUCCUCUGGAUCUACUGGGUUACCUAA | 0.488 ± 0.075 |
| CUUAAGGACUGGAUCUACUGGGAUACGUAA | 0.0915 ± 0.035 |
| CUUUUCCUCUGCAUCUACUGGGUUACGUAA | 0.286 ± 0.035 |
| CUUAAGCUCUCGAUCUACUGGCUUACCUAA | 0.11 ± 0.0093 |

| Sequence | pre-steady-state target cleavage rate |
| --- | --- |
| GAAUUCUCUCUGGAUCUACUGGGUUACCUAA | 0.252 ± 0.05 |
| CUUAACCUCUGGAUCUACUGGGUUACCUAA [g2:g25:cont:t1A] | 0.228 ± 0.033 |
| GAAUUCCUCUGGAUCUUCUGGGUUACCUUA | 0.226 ± 0.046 |
| CAAUCUCCUCUGGAUCUACUGGGUUACCUAA | 0.425 ± 0.069 |
| CUAAUCCUCUGGAUCUUCUGGGUUACCUAA | 0.464 ± 0.059 |
| CUUUUCCACUGCAUCUACUGGGUUACCUAA | 0.406 ± 0.024 |
| CUAUUCCUCUGGAUCUACUGCGUAACCUAA | 0.175 ± 0.043 |
| CUUAAGGUCUGCAUCUACUGGGUUACCUUA | 0.0594 ± 0.01 |
| CUUAAGGAGUGGAUCUACUGGGUAACGUAA | 0.0159 ± 0.0086 |
| GAAUUCCUGUGGAUCUACUGGGUUACCAAA | 0.1 ± 0.021 |
| CUUAAGCUCUGCAUCUACUGCGUUACCUAA | 0.315 ± 0.048 |
| CUAUUCCUCUGAAUCUACUGGGUUACCUAA | 0.25 ± 0.046 |
| CAAUUCCUCUGGUAGUACUGGGUUACCUAA | 0.247 ± 0.031 |
| CUUAAGGACUGGAUCUACUGGGUUACUAA | 0.0207 ± 0.018 |
| CUUAAGCUCUGGUUCUACUGGCUUACCUAA | 0.0753 ± 0.0091 |
| CUUUACCUCUGCAUCUACUGGGUUACCUAA | 0.348 ± 0.027 |
| CUAUUCCUCUGGAUCUACUGGGUUACCUAC [g2:g28:cont:t1C] | 0.295 ± 0.037 |
| CAAUUCCACUGGAUCUUCUGGGUUACCUAA | 0.461 ± 0.066 |
| GAAUUCCUCAGGAUCUACUGGGUUACCAAA | 0.459 ± 0.055 |
| CUUAACCUCUGGAUCUACUGCGUUACGUAA | 0.254 ± 0.039 |
| CUUAAGCUCUGGAUCAACUGGGUUUCCUAA | 0.055 ± 0.01 |
| CUUAACCUCUGGAUCAACUGGGAUACCUAA | 0.0682 ± 0.0085 |
| CUAUUCCUCAGGAACUACUGGGUUACCUAA | 0.332 ± 0.035 |

| Sequence | pre-steady-state target cleavage rate |
| --- | --- |
| CUAUUCCUCUGGAUCUACUGGGAUUCCUAA | 0.0897 ± 0.032 |
| CAAUUCCUCUGGAAUCUACUGGGUUACCUAA | 0.493 ± 0.056 |
| CUUAACCUCUGGUUCUACUGGGAUACCUAA | 0.0765 ± 0.02 |
| CUUUUCCUCUGGAUCUACUGGGUUACCGAA | 0.23 ± 0.05 |
| CUAAACCUCUGGAUCUACUGGGUUACCUAA | 0.266 ± 0.04 |
| CAAUACCUCUGGAUCUACUGGGUUAGCUAA | 0.343 ± 0.065 |
| CAAUUCCUGUGGAUCAACUGGGUUACCUAA | 0.418 ± 0.039 |
| CUUAUGCUCUGGAUCUAGUGGGUUACCUAA | 0.0604 ± 0.0069 |
| CUUUUCCUCUGGAUCUACUGGGUUUGGAUA [g7:g27:cont:t1A] | 0.00697 ± 0.004 |
| CUUAUCCUCUCGAUCUACUGGGUUAGCUAA | 0.34 ± 0.033 |
| CUUUACCACUGGAUCUACUGGGUUACCUAA | 0.442 ± 0.039 |
| CUAUUCCACUGGAUCUACAGGGUUACCUAA | 0.274 ± 0.032 |
| CUUAUCCUCUGGAUCUACUGGGUUACCCAA | 0.391 ± 0.13 |
| CUUAAGGUCUGGAACUACUGGGUUACCUAA | 0.161 ± 0.045 |
| GAUUUCCUCUGGAUCUACUGGGUAACCUAA | 0.101 ± 0.025 |
| GAAUUCCUCUGGAUCUACCUGGGUUACCUAA | 0.00478 ± 0.0045 |
| CUUAUCCUGUGGAUCUAGUGGGUUACCUAA | 0.176 ± 0.019 |
| CUUAUCCUGUGGAUCUACUGGGAUACCUAA | 0.214 ± 0.029 |
| CAAUUCCUCUGGAUCUACUGGGUUACCUAA [g2:g29:cont:t1A] | 0.494 ± 0.069 |
| GAAUUCCUCUGGAUCUACUGGGUUUCGUAA | 0.248 ± 0.044 |
